# Screen size: about 340,000 compounds; about 12,000 (3.5%) were called active. Inconclusive means that the source gave no clear call. Such entries were picked first, then a sample of the others. Calls come from the whole dose curve; as a rule, active = well fitted inhibition curve with a large enough effect; inconclusive = small, poorly fitted or top-dose-only effect, or another doubt; inactive = no such curve, though single readings can be large or run the other way. No potency is given beside an inconclusive call; the fits are too rough.
# Assay: qHTS Assay for Inhibitors of Hepatitis C Virus (HCV)
# Conditions: Huh7.5.1 HCVcc-Cre (HCVcc is cell-culture hepatitis C virus) infection, luciferase reporter, 44 h; activity change, negative = inhibition: at 41.8 µM (top of the series)
# In short: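 Reporter virus HCVcc-Cre (~0.5 moi) infects cells exposed to compound; seeding density 1,000 cells/well with 4 h settling beforehand. Luminescence, 15 sec read, taken 44 h post-infection following a 15 min RT substrate incubation.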
# % is set by controls: 0 for no effect and ±100 for the full control effect; potency is the fitted concentration of half-maximal effect; tags give direction and shape of the fitted curve.
Structure (SMILES),Potency,"activity change, negative = inhibition"
CCOc1ccc(-c2nnc(-c3ccncc3)o2)cc1OCC,"inconclusive [inhibitor, full curve, poor fit]",–
Cc1ccc(C)c(OCc2ccc(C(=O)N3N=C(C(F)F)CC3(O)C(F)F)o2)c1 (centres undefined),–,inconclusive: -34.7% [inhibitor]
CCc1cc2c(SCc3nc4sc(C(C)=O)c(C)c4c(=O)[nH]3)ncnc2s1,"inconclusive [inhibitor, single point]",–
O=C(CSc1ncccn1)NC1CCCc2ccccc21 (centres undefined),–,inactive: 3.47%
CCCCCN1C=CC=C/C1=C\C=C(C#N)C#N,"inconclusive [inhibitor, single point]",–
CCCCn1c(=NC(=O)c2ccco2)c(C(=O)OCC)cc2c(=O)n3cccc(C)c3nc21,"inconclusive [inhibitor, full curve]",–
O=C(NCC1CCN(c2ccc(S(=O)(=O)N3CCOCC3)cc2)CC1)Nc1ccccc1,–,inactive: -17.3%
C/C=C/COC(=O)C1=C(C)NC(=O)NC1c1ccc2c(c1)OCO2 (centres undefined),–,inactive: -21.8%
CCOc1cc(C(=O)Nc2cc(F)ccc2C)ccc1OCC(=O)N1CCOCC1,"inconclusive [inhibitor, partial curve]",–
COc1ccc(C)cc1Nc1nc(N)c2cc(OC)c(OC)cc2n1,"inconclusive [inhibitor, single point]",–
N#Cc1ccc(-c2ccc(OCC(=O)NN=Cc3ccncc3)cc2)cc1,"inconclusive [inhibitor, single point]",–
O=C1c2ccc(Cl)cc2S(=O)(=O)c2cccc(C(=O)N3CCN(c4ccc(Cl)cn4)CC3)c21,"inconclusive [inhibitor, single point]",–
COc1ccc(-c2ccc3c(c2)C2CC3CCN2S(=O)(=O)c2ccccc2C)cc1 (centres undefined),"inconclusive [inhibitor, single point]",–
O=C(Nc1ccc(Cl)c(Cl)c1)c1csc(-c2ccccc2)n1,–,inactive: -8.12%
CCN(CC)CC(O)CN1c2ccccc2Sc2ccccc21 (centres undefined),active: 22.4 µM,–
COc1cccc(NC(=O)Cc2cccs2)c1,–,inactive: 21.9%
Cn1c(-c2ccc(Cl)nc2)nc2cc(Cl)ccc21,"inconclusive [inhibitor, single point]",–
CCC(C)NC(=O)COC(=O)c1cc([N+](=O)[O-])ccc1Sc1nc(C)cs1 (centres undefined),"inconclusive [inhibitor, single point]",–
COc1ccc(CN2CCN(C(=O)c3cc(-c4cccnc4)nc4ccc(Cl)cc34)CC2)c(OC)c1OC,"inconclusive [inhibitor, single point]",–

# Reference: PubChem BioAssay AID651820 (National Center for Advancing Translational Sciences (NCATS), 2012)
